# Test results as given in PubChem BioAssay (NCATS).
# Several values for one entry are separate records, joined by “and”; a condition that tells them apart may be missing. Identical values can stand only once. The inconclusive results got no clear call from the source; some entries with a clear call stand among them for comparison. Where the call is inconclusive, the potency comes from a doubtful curve fit. Some structures have more than one record in an assay (separate samples or runs), and their calls can disagree. Activity calls are given as the source filed them. The call rests on the fitted dose curve; in most records, active means well fitted inhibition curve with a large enough effect; inconclusive means small, poorly fitted or top-dose-only effect; inactive means flat fitted curve, though single readings scatter. Square brackets hold non-standard residues; d marks the D form. Peptide text beside a SMILES is read from it. ξ: configuration not given here. ξLac(3-iPr) = CC(C)CC(O)C(=O)O; NMeV = CN[CH](C(=O)O)C(C)C; NMeA = CN[CH](C)C(=O)O; βAla = NCCC(=O)O
# Key:
# CRL-7250 = normal cell line; assay: Cytotoxic Profiling of Annotated Libraries Using Quantitative High-Throughput Screening (AID 1296008); conditions: Five cell lines viability, CellTiter-Glo ATP luminescence, 48-72 h; max response: stronger effect = lower value; further: nearly all actives have a fitted effect of over 60% in size
# Procedure, shortened: (§1)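 Compounds were pin-transferred onto cells and incubated 48 or 72 hr at 37 degree Celsius, 95% humidity. CellTiter-Glo was added, plates sat 10 min at room temperature, then ATP-coupled luminescence was imaged as the viability read-out.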
# HEK293 = assay: as above; conditions: Five cell lines viability, CellTiter-Glo ATP luminescence, 48-72 h; max response: stronger effect = lower value
# Procedure, shortened: as §1
# On the % scale 0 is the no-effect control and ±100 the full control effect; potency means the concentration at half of the fitted maximal effect; tags describe the fitted curve by direction and shape.
smiles,measurement,setting,value
O=[N+]([O-])c1cc([N+](=O)[O-])c2ccccc2c1,Potency,CRL-7250,"inconclusive: 10.9 µM [inhibitor, single point]"
same,Potency,HEK293,"inconclusive: 34.4 µM [inhibitor, partial curve, poor fit]"
CC(C)(C)CC(C)(C)c1ccc(O)cc1,Potency,CRL-7250,active: 38.6 µM
same,Potency,HEK293,"inconclusive: 26.6 µM [inhibitor, single point]"
O=C(NCCN1CCC2(CC1)C(=O)NCN2c1cccc(F)c1)c1ccc(F)c(F)c1,outcome,CRL-7250,inactive
same,Potency,HEK293,"inconclusive: 14.6 µM [inhibitor, partial curve]"
O=C(Nc1ccc(Br)cc1)c1cc(Br)cc(Br)c1O,Potency,CRL-7250,"inconclusive: 6.68 µM [inhibitor, partial curve]"
same,Potency,HEK293,"inconclusive: 33.5 µM [inhibitor, single point]"
C[C@]12CC[C@H](OC3OC(CO)C(O)C(O)C3OC3OC(CO)C(O)C(O)C3O)C[C@@H]1CC[C@@H]1C2CC[C@]2(C)[C@@H](C3=CC(=O)OC3)CC[C@]12O (stereo not given in full),Potency,CRL-7250,"inconclusive: 8.62 µM [inhibitor, single point]"
same,Potency,HEK293,"inconclusive: 9.68 µM [inhibitor, single point]"
COC1CC(O[C@H]2CC[C@]3(C=O)C4CC[C@]5(C)[C@@H](C6=CC(=O)OC6)CC[C@]5(O)[C@@H]4CC[C@]3(O)C2)OC(C)C1O[C@@H]1O[C@H](CO)[C@@H](O)[C@H](O)[C@H]1O (stereo not given in full),Potency,CRL-7250,active: 0.0968 µM
same,Potency,HEK293,active: 0.153 µM
CCc1nn(C)c(C(=O)NCc2ccc(Oc3ccc(C)cc3)cc2)c1Cl,Potency,CRL-7250,active: 0.0065 µM
same,Potency,HEK293,active: 0.0073 µM
CC(=CCCC1=CCC(C2=CC(=O)OC2O)OC1O)CCC1=C(C)CCCC1(C)C (stereo not given),Potency,CRL-7250,"inconclusive: 5.9 µM [inhibitor, partial curve]"
same,Potency,HEK293,"inconclusive: 37.2 µM [inhibitor, single point]"
COc1ccc2c(c1OC)CN1CCc3cc4c(cc3C1C2)OCO4 (stereo not given),Potency,CRL-7250,"inconclusive: 33.5 µM [inhibitor, single point] and inconclusive: 1.05 µM [inhibitor, full curve, poor fit]"
same,Potency,HEK293,active: 9.44 µM and active: 935 nM
C[N+]1(CCC(C(N)=O)(c2ccccc2)c2ccccc2)CCCCC1,Potency,CRL-7250,"inconclusive: 21.1 µM [inhibitor, single point]"
same,outcome,HEK293,inactive
CO[C@H]1C[C@H](O[C@H]2CC[C@]3(CO)[C@H]4CC[C@]5(C)[C@@H](C6=CC(=O)OC6)CC[C@]5(O)[C@@H]4CC[C@]3(O)C2)O[C@H](C)[C@H]1O,Potency,CRL-7250,active: 0.0709 µM
same,Potency,HEK293,"inconclusive: 0.0056 µM [inhibitor, full curve, poor fit]"
Clc1ccc(C(OCCN2CCCCC2)c2ccccc2)cc1 (stereo not given),Potency,CRL-7250,"inconclusive: 8.41 µM [inhibitor, partial curve]"
same,Potency,HEK293,"inconclusive: 23.7 µM [inhibitor, single point]"
CCOP(=S)(OCC)Oc1ccc2c(C)c(Cl)c(=O)oc2c1,max response,CRL-7250,inactive: -4.21%
same,Potency,HEK293,"inconclusive: 23.7 µM [inhibitor, single point]"
C[C@H]1O[C@@H](O[C@H]2[C@@H](O)C[C@H](O[C@H]3[C@@H](O)C[C@H](O[C@H]4CC[C@@]5(C)[C@H](CC[C@@H]6[C@@H]5CC[C@]5(C)[C@@H](C7=CC(=O)OC7)CC[C@]65O)C4)O[C@@H]3C)O[C@@H]2C)C[C@H](O)[C@@H]1O,Potency,CRL-7250,active: 33.5 nM and active: 48.5 nM
same,Potency,HEK293,active: 53.1 nM and active: 61.1 nM
N#Cc1ccc(N2CCN(C(=O)COc3ccc4[nH]cc(CCN)c4c3)CC2)cc1,Potency,CRL-7250,"inconclusive: 14.6 µM [inhibitor, partial curve, poor fit]"
same,Potency,HEK293,"inconclusive: 29.1 µM [inhibitor, single point]"
CCC(C)C1NC(=O)C2CCCN2C(=O)C(CC(C)C)OC(=O)CCNC(=O)C(C)N(C)C(=O)C(C(C)C)N(C)C1=O (stereo not given) (cyclo([ξLac(3-iPr)]PI[NMeV][NMeA][βAla]); configuration not given here),Potency,CRL-7250,"inconclusive: 0.0077 µM [inhibitor, full curve, poor fit]"
same,Potency,HEK293,"inconclusive: 8.62 µM [inhibitor, single point]"
NNC(=O)c1nn(Cc2ccc(Cl)cc2Cl)c2ccccc12,Potency,CRL-7250,"inconclusive: 29.1 µM [inhibitor, single point]"
same,Potency,HEK293,"inconclusive: 32.6 µM [inhibitor, single point]"
Cc1c(N[C@@H](c2nnc(-c3ccc(C#N)cc3)o2)[C@H](C)O)ccc(C#N)c1Cl,outcome,CRL-7250,inactive
same,Potency,HEK293,"inconclusive: 29.1 µM [inhibitor, single point]"
Clc1ccc(CCC(Cn2ccnc2)Sc2c(Cl)cccc2Cl)cc1 (stereo not given),Potency,CRL-7250,"inconclusive: 37.2 µM [inhibitor, single point]"
same,Potency,HEK293,"inconclusive: 29.9 µM [inhibitor, single point]"
Nc1ccc(N=Nc2ccccc2)cc1,Potency,CRL-7250,"inconclusive: 68.6 µM [inhibitor, partial curve, poor fit]"
same,Potency,HEK293,"inconclusive: 8.63 µM [inhibitor, full curve]"
C[C@H](N)[C@H](O)c1ccc(O)c(O)c1,Potency,CRL-7250,"inconclusive: 18.8 µM [inhibitor, partial curve, poor fit]"
same,Potency,HEK293,"inconclusive: 33.5 µM [inhibitor, partial curve, poor fit]"
C[C@@H]1CN(Cc2ccc(F)cc2)CCN1C(=O)COc1ccc(Cl)cc1NC(N)=O,Potency,CRL-7250,active: 0.731 µM
same,Potency,HEK293,active: 1.3 µM
c1ccc(C2(c3ccccc3)OC[C@@H]([C@H]3CCCCN3)O2)cc1,max response,CRL-7250,inactive: -2.49%
same,Potency,HEK293,"inconclusive: 16.4 µM [inhibitor, single point]"
C[C@]12CC[C@H](O)C[C@H]1CC[C@@H]1[C@@H]2[C@H](O)C[C@]2(C)[C@@H](c3ccc(=O)oc3)CC[C@]12O,Potency,CRL-7250,active: 0.0103 µM
same,Potency,HEK293,active: 0.0366 µM
CO[C@H]1[C@@H](O)[C@@H](C)O[C@@H](O[C@@H]2C=C3C(OC(C)=O)CC4(O)C(CC[C@]5(C)[C@@H](C6=CC(=O)OC6)CC[C@]45O)[C@@]3(C)CC2)[C@@H]1O (stereo not given in full),Potency,CRL-7250,active: 0.137 µM
same,Potency,HEK293,active: 0.0862 µM
C[C@@H]1C[C@@H](O)[C@]2(O)O[C@@H]3C[C@@]4(C=O)C(CC[C@@H]5C4CC[C@]4(C)[C@@](O)(C6=CC(=O)OC6)CC[C@]54O)C[C@H]3OC2O1 (stereo not given in full),Potency,CRL-7250,active: 0.796 µM
same,Potency,HEK293,active: 1.12 µM
C[C@@H]1O[C@@H](O[C@H]2CC[C@@]3(C)C(CC[C@@H]4C3CC[C@]3(C)[C@@H](C5=CC(=O)OC5)CC[C@]43O)C2)[C@H](O[C@@H]2O[C@H](CO)[C@@H](O)[C@H](O)[C@H]2O)[C@H](O)[C@H]1O (stereo not given in full),Potency,CRL-7250,"inconclusive: 0.432 µM [inhibitor, full curve, poor fit]"
same,Potency,HEK293,active: 0.485 µM
CC1=C[C@H]2O[C@@H]3C[C@H]4OC(=O)/C=C/C=C/C(=O)OCC/C(C)=C/C(=O)OC[C@@]2(CC1)[C@]4(C)[C@]31CO1,Potency,CRL-7250,active: 0.0252 µM
same,Potency,HEK293,active: 0.008 µM
C#C[C@]1(O)CC[C@H]2[C@@H]3CCC4=CC(=O)CCC4=C3C=C[C@@]21CC,Potency,CRL-7250,"inconclusive: 33.5 µM [inhibitor, single point]"
same,Potency,HEK293,"inconclusive: 29.9 µM [inhibitor, single point]"
CCOC(=O)C1(c2ccccc2)CCN(CCC(C#N)(c2ccccc2)c2ccccc2)CC1,Potency,CRL-7250,"inconclusive: 33.5 µM [inhibitor, single point]"
same,Potency,HEK293,active: 7.5 µM
C[CH2][Hg][S]c1ccccc1C(=O)O,Potency,CRL-7250,active: 16.8 µM
same,Potency,HEK293,"inconclusive: 7.5 µM [inhibitor, partial curve, poor fit]"
Cc1sc2c(c1C)C(c1ccc(Cl)cc1)=NC(CC(=O)OC(C)(C)C)c1nnc(C)n1-2 (stereo not given),Potency,CRL-7250,"inconclusive: 0.58 µM [inhibitor, full curve]"
same,Potency,HEK293,active: 0.651 µM
C[C@]12COC(=O)C[C@@H]1CC[C@@H]1[C@H]2CC[C@@]2(C)[C@H]1CC[C@]2(C)O,Potency,CRL-7250,"inconclusive: 10.5 µM [inhibitor, single point]"
same,Potency,HEK293,"inconclusive: 11.8 µM [inhibitor, single point]"
CN1C(=O)CN=C(c2ccccc2)c2cc(Cl)ccc21,Potency,CRL-7250,"inconclusive: 18.8 µM [inhibitor, partial curve, poor fit]"
same,Potency,HEK293,"inconclusive: 15 µM [inhibitor, partial curve, poor fit]"
COc1cccc(C(=O)CCN[C@@H](C)[C@H](O)c2ccccc2)c1,Potency,CRL-7250,"inconclusive: 5.31 µM [inhibitor, single point]"
same,Potency,HEK293,"inconclusive: 0.299 µM [inhibitor, full curve, poor fit]"
Fc1cc(F)c2c(c1)C1C=CCC1C(c1cccnc1)N2 (stereo not given),Potency,CRL-7250,active: 5.8 µM
same,Potency,HEK293,active: 23.1 µM
Oc1ccc2[nH]cc(CCCCN3CC=C(c4ccccc4)CC3)c2c1,max response,CRL-7250,inactive: 4.19%
same,Potency,HEK293,"inconclusive: 33.5 µM [inhibitor, single point]"
CC1=CC2OC3CC(O)[C@](C)([C@@]2(C)C(O)C1=O)[C@]31CO1 (stereo not given in full),Potency,CRL-7250,active: 5.8 µM
same,Potency,HEK293,active: 5.17 µM
CO[C@]12CC[C@@]3(C[C@@H]1[C@](C)(O)C(C)(C)C)[C@@H]1Cc4ccc(O)c5c4[C@@]3(CCN1CC1CC1)[C@H]2O5,Potency,CRL-7250,"inconclusive: 53.9 µM [inhibitor, single point]"
same,Potency,HEK293,active: 21.5 µM
CCCN(CCC)c1c([N+](=O)[O-])cc(S(N)(=O)=O)cc1[N+](=O)[O-],Potency,CRL-7250,"inconclusive: 21.7 µM [inhibitor, partial curve]"
same,Potency,HEK293,"inconclusive: 48.6 µM [inhibitor, single point]"
